Measurements as given in publication PMC6588349, “Conformational dynamics between transmembrane domains and allosteric modulation of a metabotropic glutamate receptor” (eLife, 2019).

Molecular target: the molecule itself
Test: single-molecule pulldown (SiMPull) with subunit counting by photobleaching steps; surface receptors labelled with BG-LD555 on HEK 293T cells, lysed in 1.2% IGEPAL, diluted in 0.1% IGEPAL, immobilised by biotinylated anti-HA antibody on a PEG-passivated coverslip, TIRF imaging; SNAP labelling efficiency ~80%; background two-step bleaching ~5-10%

B1: SNAP-mGluR5 (receptor, human, UniProt P41594 21-1212, looked up)
chain: QSSERRVVAHMPGDIIIGALFSVHHQPTVDKVHERKCGAVREQYGIQRVEAMLHTLERINSDPTLLPNITLGCEIRDSCWHSAVALEQSIEFIRDSLISSEEEEGLVRCVDGSSSSFRSKKPIVGVIGPGSSSVAIQVQNLLQLFNIPQIAYSATSMDLSDKTLFKYFMRVVPSDAQQARAMVDIVKRYNWTYVSAVHTEGNYGESGMEAFKDMSAKEGICIAHSYKIYSNAGEQSFDKLLKKLTSHLPKARVVACFCEGMTVRGLLMAMRRLGLAGEFLLLGSDGWADRYDVTDGYQREAVGGITIKLQSPDVKWFDDYYLKLRPETNHRNPWFQEFWQHRFQCRLEGFPQENSKYNKTCNSSLTLKTHHVQDSKMGFVINAIYSMAYGLHNMQMSLCPGYAGLCDAMKPIDGRKLLESLMKTNFTGVSGDTILFDENGDSPGRYEIMNFKEMGKDYFDYINVGSWDNGELKMDDDEVWSKKSNIIRSVCSEPCEKGQIKVIRKGEVSCCWTCTPCKENEYVFDEYTCKACQLGSWPTDDLTGCDLIPVQYLRWGDPEPIAAVVFACLGLLATLFVTVVFIIYRDTPVVKSSSRELCYIILAGICLGYLCTFCLIAKPKQIYCYLQRIGIGLSPAMSYSALVTKTNRIARILAGSKKKICTKKPRFMSACAQLVIAFILICIQLGIIVALFIMEPPDIMHDYPSIREVYLICNTTNLGVVTPLGYNGLLILSCTFYAFKTRNVPANFNEAKYIAFTMYTTCIIWLAFVPIYFGSNYKIITMCFSVSLSATVALGCMFVPKVYIILAKPERNVRSAFTTSTVVRMHVGDGKSSSAASRSSSLVNLWKRRGSSGETLRYKDRRLAQHKSEIECFTPKGSMGNGGRATMSSSNGKSVTWAQNEKSSRGQHLWQRLSIHINKKENPNQTAVIKPFPKSTESRGLGAGAGAGGSAGGVGATGGAGCAGAGPGGPESPDAGPKALYDVAEAEEHFPAPARPRSPSPISTLSHRAGSASRTDDDVPSLHSEPVARSSSSQGSLMEQISSVVTRFTANISELNSMMLSTAAPSPGVGAPLCSSYLIPKEIQLPTTMTTFAEIQPLPAIEVTGGAQPAAGAQAAGDAARESPAAGPEAAAAKPDLEELVALTPPSPFRDSVDSGSTTPNSPVSESALCIPSSPKYDTLIIRDYTQSSSSL
modifications: SNAP tag labelled with BG-LD555
notes: mGluR5; the previously reported full-length SNAP-tagged mGluR cDNA (Doumazane et al., 2011) from which the human mGluR5-TMD clone was made; source: HEK 293T, transfected, surface-labelled, in detergent lysate; not shown: HA, N-terminal, kept; SNAP, N-terminal, kept
With B1 the “percent of spots bleaching in two steps” value was 48.4% and the “stoichiometry N” value was 2.
